Test results as given in PubChem BioAssay AID504332 (National Center for Advancing Translational Sciences (NCATS), 2011).
In all, about 350,000 compounds went through this assay and about 31,000 (8.9%) were called active. The shares of active, inactive and inconclusive entries below differ from those in the screen. Calls come from the whole dose curve; as a rule, active = well fitted inhibition curve with a large enough effect; inconclusive = small, poorly fitted or top-dose-only effect; inactive = no such curve, though single readings can be large or run the other way. Potencies beside an inconclusive call are fits to weak or partial responses and may not hold up. A structure can be active in one record and inactive in another.

Molecular target: Histone-lysine N-methyltransferase EHMT2 (Homo sapiens) (UniProt Q96KQ7)
UniProt Q96KQ7, sequence (Q96KQ7 whole entry, looked up): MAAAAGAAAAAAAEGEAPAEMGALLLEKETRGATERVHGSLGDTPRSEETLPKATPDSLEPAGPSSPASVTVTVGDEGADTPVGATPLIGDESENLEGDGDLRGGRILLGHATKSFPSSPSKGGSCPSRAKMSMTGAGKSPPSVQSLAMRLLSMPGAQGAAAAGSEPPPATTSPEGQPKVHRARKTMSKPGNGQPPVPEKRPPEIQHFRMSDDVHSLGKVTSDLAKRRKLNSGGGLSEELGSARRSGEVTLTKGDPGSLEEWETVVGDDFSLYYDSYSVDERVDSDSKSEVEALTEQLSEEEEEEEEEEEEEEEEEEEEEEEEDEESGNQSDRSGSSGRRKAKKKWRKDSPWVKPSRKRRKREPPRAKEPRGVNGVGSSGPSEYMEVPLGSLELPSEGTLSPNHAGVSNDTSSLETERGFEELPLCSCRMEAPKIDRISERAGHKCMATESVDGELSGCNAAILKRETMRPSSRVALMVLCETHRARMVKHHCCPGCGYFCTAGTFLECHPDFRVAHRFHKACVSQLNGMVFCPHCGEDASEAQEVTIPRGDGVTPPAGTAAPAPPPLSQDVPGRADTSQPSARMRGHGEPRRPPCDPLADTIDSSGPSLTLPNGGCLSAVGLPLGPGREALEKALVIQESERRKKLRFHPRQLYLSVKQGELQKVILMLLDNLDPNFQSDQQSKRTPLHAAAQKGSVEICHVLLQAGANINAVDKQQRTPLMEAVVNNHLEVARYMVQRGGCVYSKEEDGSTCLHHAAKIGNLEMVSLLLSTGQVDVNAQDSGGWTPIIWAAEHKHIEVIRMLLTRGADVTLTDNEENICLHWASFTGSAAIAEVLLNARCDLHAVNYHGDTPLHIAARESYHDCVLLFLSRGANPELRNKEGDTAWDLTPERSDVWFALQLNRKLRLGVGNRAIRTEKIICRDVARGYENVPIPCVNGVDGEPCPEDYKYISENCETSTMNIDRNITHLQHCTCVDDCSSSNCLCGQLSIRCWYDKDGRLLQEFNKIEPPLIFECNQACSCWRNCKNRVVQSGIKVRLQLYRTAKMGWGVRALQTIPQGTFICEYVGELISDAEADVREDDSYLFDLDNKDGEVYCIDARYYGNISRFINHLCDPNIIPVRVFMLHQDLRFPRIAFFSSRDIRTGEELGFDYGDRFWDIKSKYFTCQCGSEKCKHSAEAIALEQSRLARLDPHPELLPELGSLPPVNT
Experiment: qHTS Assay for Inhibitors of Histone Lysine Methyltransferase G9a; note: nearly all actives have a fitted effect of over 75% in size
Details: G9a H3K9 monomethylation, AlphaScreen, 2 h; activity, negative = inhibition: at 59 µM (top of the series) unless noted
In short: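 Step 1: enzyme (final 20 nM) with compound, 15 min RT. Step 2: substrate peptide 500 nM and SAM 20 uM, 2 h RT. Step 3: anti-H3K9me1 antibody and AlphaScreen beads, 10 min, then plate read.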
% is set by controls: 0 for no effect and ±100 for the full control effect; potency is the fitted concentration of half-maximal effect; tags give direction and shape of the fitted curve.

SMILES | Potency | activity, negative = inhibition
Nc1nc(CN2CCc3ccccc3C2)nc(Nc2ccccc2)n1 | inconclusive: 3.16 µM [inhibitor, single point] | 
CCN(C(=O)c1cc2c(=O)n(CC)c3ccccc3c2s1)c1cccc(C(F)(F)F)c1 |  | inactive: 3.78%
Cc1cccc(-c2cc3nc(C)cc(NCCCn4ccnc4)n3n2)c1 | inconclusive: 79.4 µM [inhibitor, single point] | 
CN(CC(=O)Nc1ccccc1Cl)C(=O)CCc1nc2ccccc2c(=O)[nH]1 | inconclusive: 89.1 µM [inhibitor, partial curve, poor fit] | 
COC(=O)c1ccccc1NC(=O)Cn1c(SC)c(F)cnc1=O | active: 0.562 µM | 
COc1ccc2[nH]c(=O)c(CN(C(=O)c3cccnc3)c3cccc(C)c3)cc2c1 |  | inactive: -26.9% [at 102 µM]
CCOC(=O)Cc1csc(NC(=O)CSc2nnc(-n3nc(C)cc3C)c3ccccc23)n1 | inconclusive: 79.4 µM [inhibitor, partial curve, poor fit] | 
COc1cccc(-c2nn(C)c3sc(C(=O)N4CCN(c5ccccc5)CC4)cc23)c1 |  | inconclusive: -54.4% [inhibitor]
COc1cc(CN(C(=O)COc2ccccc2Cl)c2ccccn2)cc(OC)c1OC |  | inactive: 1.29%
CN(C)c1ccc(/C=C/C(=O)c2cc(Cl)ccc2O)cc1 | active: 3.98 µM | 
Cc1cc(OCC(=O)OCC(=O)c2ccc[nH]2)ccc1Cl |  | inactive: -0.651% [at 102 µM]
COc1cccc(N2C(=O)CSC23C(=O)N(CC(=O)Nc2cccc(Cl)c2)c2ccccc23)c1 (configuration not stated) | inconclusive: 7.94 µM [inhibitor, partial curve, poor fit] | 
COc1ccccc1Nc1cc(C)nc(Nc2ccccc2OC)n1 | active: 2.24 µM | 
CCn1c(C)c2c([n+]1CC)CC(C)(C)CC2=O | active: 15.8 µM | 
C=C(C)C(=O)Nc1cccc(C2=NOC3(C2)C[C@@H](C(N)=O)N(C(=O)/C(C)=C/C)C3)c1 (some centres not stated) |  | inconclusive: -158% [inhibitor] [at 12.7 µM]
Cc1cccc(NC(=O)CSc2nc3ccccc3nc2N2CCCC2)c1 | inconclusive: 79.4 µM [inhibitor, single point] | 
CCC(CC)C(=O)N1CCc2cc(OC)c(OC)cc2C1COc1ccc(C(=O)OC)cc1 (configuration not stated) |  | inactive: -5.43%
COc1cc2cc(CN(CCN3CCCC3)C(=O)Nc3ccc(F)cc3)c(=O)[nH]c2cc1OC | inconclusive: 89.1 µM [inhibitor, single point] | 
Cc1ccc2c(COC(=O)c3n[nH]c4ccccc34)cc(=O)oc2c1 | inconclusive: 89.1 µM [inhibitor, single point] | 
O=C(CSc1nnc(Nc2ccccc2)s1)NCCN1C(=O)CSC1=O | inconclusive: 17.8 µM [inhibitor, single point] | 
Cc1nn(CCc2nn[nH]n2)c2nc(C(F)(F)F)cc(C(F)(F)F)c12 | inconclusive: 28.2 µM [inhibitor, single point] | 
CN(C)C(CNC(=O)c1ccc(NS(=O)(=O)c2cccc([N+](=O)[O-])c2)cc1)c1ccco1 (configuration not stated) | inconclusive: 89.1 µM [inhibitor, single point] | 
CCC/C(=N\NC(=O)c1ccccc1C)c1ccccc1 |  | inactive: 9.38%

SMILES | Potency | activity, negative = inhibition
Cn1c(SCC(=O)c2ccc3c(c2)OCO3)nnc1C1COc2ccccc2O1 (configuration not stated) |  | inconclusive: -81.1% [inhibitor]
Cc1ccc(S(=O)(=O)N2CCN(C(=O)C3CCN(C(=O)c4ccc(F)cc4)CC3)CC2)c(C)c1 | inconclusive: 79.4 µM [inhibitor, single point] | 
NC(=O)CN1C(=O)C(=O)N(Cc2cccc(Cl)c2)C1=O | inconclusive: 56.2 µM [inhibitor, partial curve, poor fit] | 
COc1ccc2nc(N3CCCC3)c(C#N)cc2c1 |  | inactive: 118% [at 102 µM]
CN(C)S(=O)(=O)N(CC(=O)NCCSCc1cccc(Cl)c1)c1ccccc1 |  | inactive: 2.8%
COc1ccc(CC(=O)Nc2cc(-c3nc4cccnc4s3)ccc2C)cc1 | inconclusive: 0.562 µM [inhibitor, full curve, poor fit] | 
Cc1ccsc1/C=N/n1c(-c2ccccc2)n[nH]c1=S | active: 1.78 µM | 
CCC1(C)Cc2c(sc3nc(NC)n(C)c(=O)c23)CO1 (configuration not stated) | active: 31.6 µM | 
N#C/C(=C/c1ccc(N2CCCCC2)o1)c1cccc(F)c1 | active: 2.51 µM | 
O=c1nc2ccccc2c(NS(=O)(=O)c2ccccc2)n1-c1ccccc1 | inconclusive: 2.24 µM [inhibitor, full curve, poor fit] | 
O=C(c1ccco1)N(Cc1cccc(F)c1)C1CCS(=O)(=O)C1 (configuration not stated) |  | inactive: -9.25% [at 102 µM]
COc1ccc(N=C2S/C(=C\c3cc(C)n(C)c3C)C(=O)N2C)cc1 | inconclusive: 50.1 µM [inhibitor, partial curve, poor fit] | 
Cc1[nH]n(-c2ccccc2)c(=O)c1C1(C(F)(F)F)C(=O)N(c2ccccc2)C2=C1C(=O)CC(C)(C)C2 (configuration not stated) | inconclusive: 89.1 µM [inhibitor, single point] | 
COc1cc([C@H]2c3c(cc(OC)c(O)c3OC)C[C@@H](CO)[C@@H]2CO[C@@H]2O[C@H](CO)[C@@H](O)[C@H](O)[C@H]2O)cc(OC)c1O | inconclusive: 6.31 µM [inhibitor, single point] | 
CCc1ccc2oc(-c3cccc(NC(=O)C(C)(C)Oc4ccc(Br)cc4)c3)nc2c1 |  | inactive: -6.37%
O=C(O)c1cc(S(=O)(=O)Nc2ccc3oc(=O)sc3c2)ccc1O | inconclusive: 39.8 µM [inhibitor, partial curve, poor fit] | 
Cc1ccc(C2CC(c3cccc(Br)c3)Nc3nnnn32)cc1 (configuration not stated) |  | inactive: -31.4%
CCC(C)COC(=O)C(C#N)c1nc2ccccc2nc1N1CCCCC1 (configuration not stated) |  | inactive: 15% [at 102 µM]
S=C(c1ccc(N2CCOCC2)cc1)N1CCOCC1 |  | inconclusive: -104% [inhibitor]
CCN(CC)C(=S)SCC(=O)Nc1nc(=O)c2ccccc2s1 | inconclusive: 39.8 µM [inhibitor, single point] | 
Cc1ccc(S(=O)(=O)NCC(=O)N2CCN(c3ccc(F)cc3)CC2)cc1 | inconclusive: 89.1 µM [inhibitor, single point] | 
CNC1=C(N(C(C)=O)c2ccc(Br)cc2)C(=O)c2ccccc2C1=O | inconclusive: 79.4 µM [inhibitor, single point] | 
COc1ccc(S(=O)(=O)N2CCN(CCO)CC2)cc1-c1nnc2c3ccccc3c(C)nn12 | inconclusive: 79.4 µM [inhibitor, single point] | 

SMILES | Potency | activity, negative = inhibition
Nc1ccc2nc(SCC(=O)c3ccccc3)sc2c1 | active: 44.7 µM | 
Clc1cccc(Cl)c1CNc1ccc(N2CCCC2)cc1 | active: 1.78 µM | 
CCCOc1ccc(CNC(=O)Cn2cc3c(n2)-c2c(oc(C(=O)N4CCOCC4)c2C)CC3)cc1 | inconclusive: 6.31 µM [inhibitor, single point] | 
COc1cc(NC(=O)NC(C)c2c(-n3cccc3)sc3c2CCN(C)C3)cc(OC)c1 (configuration not stated) | inconclusive: 22.4 µM [inhibitor, partial curve, poor fit] | 
C=CCSC1=C(C#N)C2(CCCCC2)C(C#N)C(=O)N1 (configuration not stated) | inconclusive: 79.4 µM [inhibitor, partial curve, poor fit] | 
CCOc1cc(N2CCOCC2)c(OCC)cc1NC(=O)C(NC(=O)c1ccco1)C(C)C (configuration not stated) | inconclusive: 22.4 µM [inhibitor, single point] | 
Cc1ccc(NC(=O)c2cnc(SCC(=O)NCC3CCCO3)n(C)c2=O)cc1C (configuration not stated) | inconclusive: 79.4 µM [inhibitor, single point] | 
CC1CC(C)CN(CCCNC(=O)c2ccc(CNS(=O)(=O)c3ccc(F)cc3)cc2)C1 (configuration not stated) | inconclusive: 35.5 µM [inhibitor, partial curve, poor fit] | 
CCOC(=O)Cc1c(C)nc2c(-c3ccccc3)c(-c3ccccc3)[nH]n2c1=O |  | inactive: 17% [at 102 µM]
Cc1ccc(-c2ccnc3c(Cl)c(C)nn23)cc1 | inconclusive: 1.12 µM [inhibitor, single point] | 
O=C(O)CC1C(=O)NCCN1C/C=C/c1ccccc1 (configuration not stated) | inconclusive: 31.6 µM [inhibitor, single point] | 
O=C(CN(CC1CCCO1)C(=O)CCC(=O)Nc1ccccn1)NCC1CCCO1 (configuration not stated) | inconclusive: 1 µM [inhibitor, partial curve, poor fit] | 
Cc1ccc(C)c(Nc2nc3c(S(=O)(=O)c4ccc(Br)cc4)nnn3c3ccsc23)c1 | active: 17.8 µM | 
S=C(NCCNC(=S)Nc1ccccc1)Nc1ccccc1 | inconclusive: 79.4 µM [inhibitor, single point] | 
CC1CCN(C(=O)c2cc(S(=O)(=O)N3CCOCC3)ccc2N2CCCC2)CC1 | inconclusive: 3.16 µM [inhibitor, single point] | 
Cc1cccc(-n2nnnc2-c2cnccc2C(F)(F)F)c1C | inconclusive: 50.1 µM [inhibitor, partial curve] | 
[N-]=[N+]=Nc1ccc(C(=O)CSC[C@H](NC(=O)CC[C@H](N)C(=O)O)C(=O)NCC(=O)O)cc1 | active: 31.6 µM | 
O=C(NCc1ccco1)c1c2c(nc3ccccc13)CCC2 | active: 39.8 µM | 
Cc1ccc(Cl)cc1N1CCN(C(=O)CCCn2c(=O)c3cccn3c3cccnc32)CC1 | inconclusive: 25.1 µM [inhibitor, partial curve, poor fit] | 
CCN(CC)S(=O)(=O)c1ccc(Cl)c(NC2=NCCCCC2)c1 | inconclusive: 44.7 µM [inhibitor, partial curve] | 
CCC(=O)O[C@@]1(C(=O)CCl)[C@@H](C)C[C@@H]2[C@H]3CCC4=CC(=O)C=C[C@@]4(C)[C@]3(F)[C@@H](O)C[C@@]21C |  | inactive: 27.5% [at 21.5 µM]
